According to article PMC4336329 (PLoS ONE, 2015):
In all, about 310,000 compounds went through this assay and about 2,200 (0.71%) showed an effect of 50% or more. Effects have a minus sign here. The list shows a part of the results.

Molecular target: human ether-à-go-go-related gene (hERG) potassium channel (human, UniProt Q12809)
Assay: primary screen, population patch clamp on CHO cells stably expressing hERG

Chain of human ether-à-go-go-related gene (hERG) potassium channel (Q12809 whole entry, looked up): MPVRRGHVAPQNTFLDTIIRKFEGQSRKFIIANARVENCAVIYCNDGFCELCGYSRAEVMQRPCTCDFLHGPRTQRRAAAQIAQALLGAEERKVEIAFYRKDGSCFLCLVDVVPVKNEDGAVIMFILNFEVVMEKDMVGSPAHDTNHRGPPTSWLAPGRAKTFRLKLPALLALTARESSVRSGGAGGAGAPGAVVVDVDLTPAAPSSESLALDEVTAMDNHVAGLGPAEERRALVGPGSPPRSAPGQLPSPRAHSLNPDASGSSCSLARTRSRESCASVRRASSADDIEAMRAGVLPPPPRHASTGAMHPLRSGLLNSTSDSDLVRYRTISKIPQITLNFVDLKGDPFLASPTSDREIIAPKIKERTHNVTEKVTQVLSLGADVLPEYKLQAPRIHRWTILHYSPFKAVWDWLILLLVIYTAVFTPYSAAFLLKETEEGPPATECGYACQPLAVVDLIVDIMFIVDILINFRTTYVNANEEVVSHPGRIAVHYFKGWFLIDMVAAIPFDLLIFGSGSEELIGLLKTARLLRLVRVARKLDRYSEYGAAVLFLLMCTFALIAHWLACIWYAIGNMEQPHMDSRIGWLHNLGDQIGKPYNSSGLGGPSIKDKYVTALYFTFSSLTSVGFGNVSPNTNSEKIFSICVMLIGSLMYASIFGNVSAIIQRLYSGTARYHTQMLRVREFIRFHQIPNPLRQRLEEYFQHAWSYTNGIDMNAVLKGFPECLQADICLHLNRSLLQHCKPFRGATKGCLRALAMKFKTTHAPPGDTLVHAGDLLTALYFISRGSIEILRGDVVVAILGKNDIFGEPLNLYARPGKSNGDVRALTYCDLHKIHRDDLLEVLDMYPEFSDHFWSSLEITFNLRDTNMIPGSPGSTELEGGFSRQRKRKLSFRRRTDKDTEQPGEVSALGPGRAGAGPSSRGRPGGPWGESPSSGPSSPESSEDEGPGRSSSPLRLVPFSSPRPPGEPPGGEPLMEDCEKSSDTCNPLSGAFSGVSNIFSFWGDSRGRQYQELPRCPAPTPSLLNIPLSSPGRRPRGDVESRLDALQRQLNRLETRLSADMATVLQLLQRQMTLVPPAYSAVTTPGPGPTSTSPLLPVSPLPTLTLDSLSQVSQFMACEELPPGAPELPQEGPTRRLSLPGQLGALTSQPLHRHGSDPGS

Row | SMILES | hERG current change (%, negative = inhibition) at 1uM [%]
1 | CCCNC(=O)C1CC(c2ccccc2C(F)(F)F)=NO1 (stereo not drawn) | 15.2
2 | Cc1cc(-c2nnc(SCC(=O)Nc3cccc(C)c3C)n2N)n[nH]1 | 18.1
3 | Cc1ccc(S(=O)(=O)NCC(=O)OCC(=O)Nc2ccccc2OC(F)F)cc1 | 7.33
4 | COCCCNC(=O)CCN1C(=O)COc2ccccc21 | 20
5 | COc1ccc2cc(CCNS(=O)(=O)c3c(C)cc(C)cc3C)c(=O)[nH]c2c1 | 11.2
6 | COc1ccc(NC(=O)COC(=O)C2CC(=O)N(c3ccc(C)cc3)C2)cc1 (stereo not drawn) | 11.5
7 | CN(C)c1cccc(C(=O)OCC(=O)N(C)c2ccccc2)c1 | 10.9
8 | O=C(c1ccc(Cl)c(Cl)c1)N1CCCC1 | 16.4
9 | Cc1nnc(NC(=O)c2csc3c2CCC(C)C3)s1 (stereo not drawn) | 14.4
10 | Cc1ccc(C(=O)NCCc2nnc3ccc(SCC(=O)Nc4c(C)cc(C)cc4C)nn23)cc1 | 4.18
11 | Cc1cc(C)cc(OCC(=O)NNC(=O)c2cc(C)[nH]n2)c1 | 11.6
12 | CCn1c(CNS(=O)(=O)c2ccc(Br)cc2)n[nH]c1=S | 11.6
13 | Cc1c(C(=O)NNC(=S)NCc2ccc(Cl)cc2)oc2ccccc12 | 14.8
14 | O=C(c1ccc(Br)s1)N1CCN(c2ccccn2)CC1 | 9.44
15 | C=C(C)c1cccc(C(C)(C)NC(=O)Nc2ccccc2OCC)c1 | 14.5
16 | COc1ccc(CNC(=O)CC23CC4CC(CC(C4)C2)C3)cc1OC | 8.5
17 | Cn1cccc1C(=O)NC(=O)COC(=O)CNC(=O)CNC(=O)c1ccc(Cl)cc1Cl | 13.8
18 | O=C1OC(c2ccc(Br)cc2)=N/C1=C\c1ccco1 | 23.2
19 | COc1ccc(C(=O)/C(=C/c2cccs2)c2nc3ccccc3o2)cc1 | -1.18
20 | COc1ccccc1CNc1ncnc2nc[nH]c12 | 16.5
21 | CC1Cc2nc(SCC(=O)N3CCN(c4ccccc4)CC3)n(C)c(=O)c2S1 (stereo not drawn) | 9.24
22 | O=C(C1CC1)N1CCN(c2ccnc3cc(Cl)ccc23)CC1 | -31.6

Row | SMILES | hERG current change (%, negative = inhibition) at 1uM [%]
23 | O=C(CSc1nnc(CNC(=O)C23CC4CC(CC(C4)C2)C3)n1-c1ccc(F)cc1)Nc1ccc(F)cc1 | 10.4
24 | CCOC(=O)C1CCCN(S(=O)(=O)CCNC(=O)c2cccc(OC)c2)C1 (stereo not drawn) | 6.16
25 | O=C(CCNC(=O)c1ccccc1Cl)Nc1ccccc1N1CCCC1 | 7.86
26 | O=C(CCS(=O)(=O)c1ccccc1)NCCS(=O)(=O)c1ccccc1 | 13.7
27 | O=C(NC1CCCC1)C(c1cccnc1)N(Cc1ccc(F)cc1)C(=O)c1csnn1 (stereo not drawn) | 1.36
28 | COc1cccc(N2CCN(C(=O)CCc3nnc4ccc(N5CCCC5)nn34)CC2)c1 | -1.62
29 | CCC1=Nc2ccc(Br)cc2C(c2ccccc2)N1CC(=O)OC (stereo not drawn) | -9.82
30 | Cc1cc2oc(C(=O)Nc3ccc(S(=O)(=O)Nc4ncccn4)cc3)cc(=O)c2cc1Cl | -6.76
31 | O=C(NCc1nc2ccccc2[nH]1)c1ccc(S(=O)(=O)N2CCOCC2)cc1 | 8.91
32 | COc1ccc(CCNc2nc(-c3ccncc3)cs2)cc1OC | 0.664
33 | CCCN1CCN(CCCNC(=O)CCn2nc(-c3ccccc3)ccc2=O)CC1 | -12.5
34 | Cn1c(=O)c(=O)n(C)c2cc(N3CCOCC3)c(NS(=O)(=O)c3ccc([N+](=O)[O-])cc3)cc21 | 4.62
35 | CCOCCn1c(CN2CCOCC2)nc2c1c(=O)[nH]c(=O)n2C | 14.1
36 | CS(=O)(=O)N(Cc1ccccc1)c1ccc(C(=O)N2CCOCC2)cc1 | -5.91
37 | CCOC(=O)C1(Cc2ccccc2)CCCN(Cc2ccc(OCC)c(CO)c2)C1 (stereo not drawn) | 4.54
38 | N#CCCNc1ccc(OCCC#N)cc1 | 17.3
39 | COc1cc(/C=N/NC(=O)C[n+]2ccccc2)cc(OC)c1OC(C)=O.[Cl-] | 13.8
40 | Cc1cccc(NC(=O)C23CCC(C)(/C(=N/O)C2)C3(C)C)c1 (stereo not drawn) | -1.6
41 | Cc1cc(=O)[nH]c(SCC(=O)Nc2ccc(Br)cn2)n1 | -1.01
42 | COc1ccc(CNc2ccc(-c3ccc(OC)cc3)nn2)cc1 | 1.82
43 | O=C(NCc1ccccc1)c1nc2c(nnn2Cc2cccc(Cl)c2)c(=O)[nH]1 | 10.1
44 | CCN(CC)CCNC(=O)COc1ccc(OC)cc1.Cl | 8.72

Row | SMILES | hERG current change (%, negative = inhibition) at 1uM [%]
45 | O=C(COc1ccc([N+](=O)[O-])cc1)Nc1cccnc1 | -14.8
46 | CCCCC(=O)Nc1ncc2c(n1)CC(C)(C)CC2=O | 3.92
47 | Cc1ccc(NC(=O)/C(Cl)=C\c2ccccc2)cc1 | 10.2
48 | O=C(CCNC(=O)c1ccc(Br)cc1)NCc1ccccc1F | 0.387
49 | CCC(C)Sc1nc2c(c(=O)[nH]c(=O)n2C)n1CC(O)COc1ccccc1C (stereo not drawn) | 6.21
50 | O=C(c1ccc(Cl)cc1Cl)N1CCN(c2ccccn2)CC1 | 13.9
51 | CCN(CC)c1ncn(Cc2c(Cl)cccc2Cl)c2ncnc1-2 | 3.87
52 | S=C(NCCSCc1c(Cl)cccc1Cl)Nc1ccccc1 | 2.09
53 | CCCOc1ccc(S(=O)(=O)N2CCN(C)CC2)c2ccccc12 | 1.66
54 | Cn1c(=O)[nH]c(=O)c2c1nc(NCCCn1ccnc1)n2Cc1ccccc1 | 5.08
55 | O=C(Nc1nnc(N2CCCCCC2)s1)c1cc(-c2ccc(Br)cc2)on1 | 15.4
56 | NS(=O)(=O)c1ccc(CCNC(=O)c2cccc([N+](=O)[O-])c2)cc1 | 2.31
57 | COc1ccccc1CNC(=O)C1CCN(S(C)(=O)=O)CC1 | -6.93
58 | CCn1c(/C=C/N(C)c2ccccc2)[n+](CC)c2ccc(Cl)cc21.[I-] | -7.59
59 | CCCCNC(=O)CSc1nc2ccc(C)cc2[nH]1 | 5.56
60 | CCOc1c(Br)cc(/C=N\NC(=O)c2ccccc2)cc1OC | 16.2
61 | CCOc1ccc(NC(=O)C2CC3CCC2C3)cc1 (stereo not drawn) | 15.9
62 | COc1ccccc1N1CCN(Cc2ccc(Br)o2)CC1 | 6.13
63 | Cc1cccc(/C=N/NC(=O)c2cccc(NC(=O)c3ccccc3)c2)n1 | 8.78
64 | O=C(NCc1cccnc1)Nc1ccc2c(c1)OCO2 | 4.41
65 | CCC(Sc1nc2cc3c(cc2c(=O)n1Cc1ccco1)OCO3)C(=O)NCCOC (stereo not drawn) | -28.1
66 | CCCCN(C(=O)c1ccc(OC(F)(F)F)cc1)c1c(N)n(CCC)c(=O)[nH]c1=O | 10.8

Row | SMILES | hERG current change (%, negative = inhibition) at 1uM [%]
67 | CC1(C)CC(NC(=O)CSc2ccccc2)CC(C)(C)N1 | 6.28
68 | O=C(O)CSc1nnc(-c2ccc(S(=O)(=O)N3CCCC3)cc2)n1Cc1ccco1 | 12.4
69 | CCOC(=O)c1c(N)sc(C(O)(C(F)(F)F)C(F)(F)F)c1-c1ccc(F)cc1 | 10.8
70 | Cc1ccc(NC(=S)Nc2ccc(Br)cc2)cc1 | 8.44
71 | OC[C@H]1O[C@@H]2O[C@H]3[C@H](O)[C@@H](O)[C@@H](O[C@H]4[C@H](O)[C@@H](O)[C@@H](O[C@H]5[C@H](O)[C@@H](O)[C@@H](O[C@H]6[C@H](O)[C@@H](O)[C@@H](O[C@H]7[C@H](O)[C@@H](O)[C@@H](O[C@H]1[C@H](O)[C@H]2O)O[C@@H]7CO)O[C@@H]6CO)O[C@@H]5CO)O[C@@H]4CO)O[C@@H]3CO | 4
72 | CNC(=O)COC(=O)c1ccc(NC(=O)CC#N)cc1 | 12.4
73 | CCCN(CC(=O)Nc1ccc(F)c(F)c1F)C(=O)C1=COCCO1 | 10.3
74 | C/C(=N\NC(=O)CSc1nnc(C)s1)c1ccc(Cl)cc1 | 11.5
75 | CN(CC(=O)Nc1ccccc1Cl)C(=O)Cn1nnc(-c2ccc(F)cc2)n1 | 2.61
76 | CCN(CC)S(=O)(=O)c1ccc(NS(=O)(=O)c2ccc(OC)c([N+](=O)[O-])c2)cc1 | 7.05
77 | CC(=O)c1cccc(NC(=O)N2CCCC2C(=O)NC2CCCC2)c1 (stereo not drawn) | 13.7
78 | CCC(=O)N1CCc2cc(Br)cc(S(=O)(=O)NCC3CCCO3)c21 (stereo not drawn) | 5.51
79 | S=c1[nH]c(-c2ccccc2)cs1 | 28.2
80 | Cc1ccc(-c2nc3ccccc3c(=O)n2-n2cccc2)cc1 | 5.23
81 | Cc1ccccc1NC(=O)C(=O)NCc1ccccn1 | 4.07
82 | CCOC(=O)c1[nH]c(C)c(C(=O)Nc2ccc(F)cc2)c1C | 11.1
83 | O=C(NC(=S)Nc1ccc(S(=O)(=O)NC2CCCCC2)cc1)c1cccs1 | -1.34
84 | Cc1cc(C(=O)CSc2nc(N)cc(=O)[nH]2)c(C)n1-c1ccc(OC(F)F)cc1 | 14.4
85 | Cc1ccc2cc(C#N)c(SCC(=O)N3CCCc4ccccc43)nc2c1C | 10.9
86 | CC(=O)c1sc(NC(=O)C2CC(=O)N(Cc3ccccc3)C2)nc1-c1ccccc1 (stereo not drawn) | 12.4
87 | Cc1ccc(C)c(N2CCN(C(=O)C3CCN(S(=O)(=O)c4cccc5nsnc45)CC3)CC2)c1 | 5.12
